Experimental data published in PMC5610480, “Original Chemical Series of Pyrimidine Biosynthesis Inhibitors That Boost the Antiviral Interferon Response” (Antimicrobial Agents and Chemotherapy, 2017).

Each compound was assayed on ISRE-luciferase reporter gene (assay: ISRE-luciferase response to ssRNA transfection in STING-37 cells). Conditions: 24 h, DD778, DD786 30 μM, dicoumarol 60 μM.

SMILES	ISRE-luciferase expression in response to ssRNA transfection
Cc1ccc2oc(=O)c3c(c2c1)OC([N+](=O)[O-])C3c1c[nH]c2ccccc12 (stereo not drawn) [DD778]	amplified
O=c1oc2ccccc2c(O)c1Cc1c(O)c2ccccc2oc1=O [Dicoumarol, dicoumarol, reference compound]	amplified
Cc1cc2c(c(=O)o1)C(c1c[nH]c3ccccc13)C([N+](=O)[O-])O2 (stereo not drawn) [DD786]	no effect
